In the supplement of paper PMC10369915:
Some of the results follow. No stated cut-off is given here; in the data, active = 3.2 or more and inactive = the rest. Only a few entries rise above the background.

What was measured:
Assay in all cases: enrichment score (SH2-bound / input frequency) (ratio); bacterial display of known human phosphotyrosine sites (pTyr-Var adds point mutants) read by sequencing; higher = stronger binding; tyrosines were phosphorylated by kinases first
Details in all cases: peptide library: Human pTyr
SHP2 C-SH2 domain E139D = biological target: SHP2 C-SH2 domain E139D
[1] = biological target: SHP2 C-SH2 domain wild-type
SHP2 N-SH2 domain L43F = biological target: SHP2 N-SH2 domain L43F
SHP2 N-SH2 domain T42A = biological target: SHP2 N-SH2 domain T42A
SHP2 N-SH2 domain T52S = biological target: SHP2 N-SH2 domain T52S
[2] = biological target: SHP2 N-SH2 domain wild-type

Measured: enrichment score
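Further: displayed peptides selected on beads carrying the immobilized SH2 domain, with library peptides lacking any tyrosine serving as negative controls.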

AETSKLIYDFIEDQG [WASP_HUMAN_291]
inactive: SHP2 C-SH2 domain E139D 0.971 | [1] 0.959 | SHP2 N-SH2 domain L43F 1.45 | SHP2 N-SH2 domain T42A 1.1 | SHP2 N-SH2 domain T52S 1.11 | [2] 0.887

MMDGAMGYVQPPPPP [WBP2_HUMAN_192]
inactive: SHP2 C-SH2 domain E139D 0.513 | [1] 0.39 | SHP2 N-SH2 domain L43F 0.471 | SHP2 N-SH2 domain T42A 0.527 | SHP2 N-SH2 domain T52S 0.493 | [2] 0.464

ADAEKPFYVNVEFHH [BCR_HUMAN_177]
inactive: SHP2 C-SH2 domain E139D 2.09 | [1] 1.76 | SHP2 N-SH2 domain L43F 1.52 | SHP2 N-SH2 domain T42A 2.22 | SHP2 N-SH2 domain T52S 1.79 | [2] 2.54

AEAAASAYANPGNPH [WBP2_HUMAN_231_YA]
inactive: SHP2 C-SH2 domain E139D 0.825 | [1] 0.551 | SHP2 N-SH2 domain L43F 0.616 | SHP2 N-SH2 domain T42A 0.54 | SHP2 N-SH2 domain T52S 0.58 | [2] 0.597

KAHDGGIYAISWSPD [WDR1_HUMAN_238]
inactive: SHP2 C-SH2 domain E139D 0.85 | [1] 0.617 | SHP2 N-SH2 domain L43F 0.618 | SHP2 N-SH2 domain T42A 1.18 | SHP2 N-SH2 domain T52S 0.825 | [2] 0.825

TTKDGWVYYANHTEE [WWOX_HUMAN_33]
inactive: SHP2 C-SH2 domain E139D 1 | [1] 0.78 | SHP2 N-SH2 domain L43F 0.867 | SHP2 N-SH2 domain T42A 1.38 | SHP2 N-SH2 domain T52S 0.744 | [2] 0.814

DTDSINLYKNMRETL [XPO1_HUMAN_454]
inactive: SHP2 C-SH2 domain E139D 0.668 | [1] 0.715 | SHP2 N-SH2 domain L43F 0.704 | SHP2 N-SH2 domain T42A 0.855 | SHP2 N-SH2 domain T52S 0.542 | [2] 0.86

VSTSVSHYGAEPTTV [YES_HUMAN_32]
inactive: SHP2 C-SH2 domain E139D 0.633 | [1] 0.554 | SHP2 N-SH2 domain L43F 0.688 | SHP2 N-SH2 domain T42A 0.605 | SHP2 N-SH2 domain T52S 0.683 | [2] 0.406

SPPDYSEYMTGKKLP [YY1_HUMAN_254]
inactive: SHP2 C-SH2 domain E139D 0.647 | [1] 0.463 | SHP2 N-SH2 domain L43F 0.661 | SHP2 N-SH2 domain T42A 0.573 | SHP2 N-SH2 domain T52S 0.522 | [2] 0.7

IHTGDRPYVCPFDGC [YY1_HUMAN_383]
inactive: SHP2 C-SH2 domain E139D 0.575 | [1] 0.617 | SHP2 N-SH2 domain L43F 0.71 | SHP2 N-SH2 domain T42A 0.636 | SHP2 N-SH2 domain T52S 0.626 | [2] 0.636

MASGDTLYIATDGSE [YY1_HUMAN_8]
inactive: SHP2 C-SH2 domain E139D 0.551 | [1] 0.46 | SHP2 N-SH2 domain L43F 0.6 | SHP2 N-SH2 domain T42A 0.512 | SHP2 N-SH2 domain T52S 0.515 | [2] 0.742

YQPYQSIYVGGMMEG [BCR_HUMAN_283]
inactive: SHP2 C-SH2 domain E139D 0.977 | [1] 0.893 | SHP2 N-SH2 domain L43F 0.649 | SHP2 N-SH2 domain T42A 0.7 | SHP2 N-SH2 domain T52S 0.812 | [2] 0.9

ERQLNGTYAIAGGKA [ZAP70_HUMAN_69]
inactive: SHP2 C-SH2 domain E139D 0.714 | [1] 0.574 | SHP2 N-SH2 domain L43F 0.723 | SHP2 N-SH2 domain T42A 0.556 | SHP2 N-SH2 domain T52S 0.553 | [2] 0.756

GMDPSDIYAVIQIPG [ZCHC3_HUMAN_202]
inactive: SHP2 C-SH2 domain E139D 1.36 | [1] 2.5 | SHP2 N-SH2 domain L43F 0.861 | SHP2 N-SH2 domain T42A 1.06 | SHP2 N-SH2 domain T52S 0.94 | [2] 0.828

KRNSLPQYQATMPDG [ZMYM2_HUMAN_595]
inactive: SHP2 C-SH2 domain E139D 1.02 | [1] 0.781 | SHP2 N-SH2 domain L43F 0.925 | SHP2 N-SH2 domain T42A 0.879 | SHP2 N-SH2 domain T52S 1.16 | [2] 1.15

TMPDGKLYNFCNSSC [ZMYM2_HUMAN_605]
inactive: SHP2 C-SH2 domain E139D 0.851 | [1] 0.615 | SHP2 N-SH2 domain L43F 1.18 | SHP2 N-SH2 domain T42A 0.718 | SHP2 N-SH2 domain T52S 0.764 | [2] 0.787

KLHCIVTYCEACQEE [ZMYM2_HUMAN_680_YA]
inactive: SHP2 C-SH2 domain E139D 1.47 | [1] 1.54 | SHP2 N-SH2 domain L43F 1.31 | SHP2 N-SH2 domain T42A 1.41 | SHP2 N-SH2 domain T52S 1.68 | [2] 2.04

IHSGEKPYECVECGK [ZN264_HUMAN_511]
inactive: SHP2 C-SH2 domain E139D 1.02 | [1] 0.666 | SHP2 N-SH2 domain L43F 0.665 | SHP2 N-SH2 domain T42A 0.876 | SHP2 N-SH2 domain T52S 0.688 | [2] 0.687
